The list shows a part of the results. Repeats are few or missing, and single values can be far off.
tested on: A2058; assay: cell count relative to DMSO control; melanoma cells; higher = more viable cells; conditions: library dose: low library concentration; 72 h
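Further: cell number obtained by counting DAPI-stained nuclei in high-throughput microscope images with image analysis software, screen run in 1,536-well plates.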

Row | SMILES | cell count [%]
1 | O=C(/C=C/c1cccnc1)NCCCCC1CCN(C(=O)c2ccccc2)CC1 + CC(C)(C)c1cnc(CSc2cnc(NC(=O)C3CCNCC3)s2)o1 [SNS-032] (first compound 0.01 µM, partner dose 0.01 µM) | 105
2 | Cc1ccc(Nc2nccc(N(C)c3ccc4c(C)n(C)nc4c3)n2)cc1S(N)(=O)=O [Pazopanib] + Cn1cncc1[C@@](N)(c1ccc(Cl)cc1)c1ccc2c(c1)c(-c1cccc(Cl)c1)cc(=O)n2C [tipifarnib] (first compound 0.4 µM, partner dose 0.01 µM) | 83.3
3 | O=C(/C=C/c1cccnc1)NCCCCC1CCN(C(=O)c2ccccc2)CC1 + C[C@@H]1CCN(C(=O)CC#N)C[C@@H]1N(C)c1ncnc2[nH]ccc12 [CP690550] (first compound 0.01 µM, partner dose 1 µM) | 83.5
4 | Cc1ccc(Nc2nccc(N(C)c3ccc4c(C)n(C)nc4c3)n2)cc1S(N)(=O)=O [Pazopanib] + COCC[n+]1c2c(n(Cc3cnccn3)c1C)C(=O)c1ccccc1C2=O [YM155] (first compound 0.4 µM, partner dose 0.0004 µM) | 88.7
5 | Cc1ccc(Nc2nccc(N(C)c3ccc4c(C)n(C)nc4c3)n2)cc1S(N)(=O)=O [Pazopanib] + CN(NC(=O)CC(=O)NN(C)C(=S)c1ccccc1)C(=S)c1ccccc1 [STA4783] (first compound 0.4 µM, partner dose 0.006 µM) | 82.9
6 | CC1(C)CCC(c2ccc(Cl)cc2)=C(CN2CCN(c3ccc(C(=O)NS(=O)(=O)c4ccc(N[C@H](CCN5CCOCC5)CSc5ccccc5)c(S(=O)(=O)C(F)(F)F)c4)cc3)CC2)C1 + C=C(c1ccc(C(=O)O)cc1)c1cc2c(cc1C)C(C)(C)CCC2(C)C [Bexarotene] (first compound 0.4 µM, partner dose 2 µM) | 95
7 | Cc1ccc(Nc2nccc(N(C)c3ccc4c(C)n(C)nc4c3)n2)cc1S(N)(=O)=O [Pazopanib] + Nc1ccn([C@@H]2O[C@H](CO)[C@@H](O)C2(F)F)c(=O)n1 [gemcitabine] (first compound 0.4 µM, partner dose 0.0004 µM) | 96.4
8 | Cc1ccc(Nc2nccc(N(C)c3ccc4c(C)n(C)nc4c3)n2)cc1S(N)(=O)=O [Pazopanib] + Clc1ccc(Nc2nnc(Cc3ccncc3)c3ccccc23)cc1 [vatalanib] (first compound 0.4 µM, partner dose 2 µM) | 90.6
9 | O=C(/C=C/c1cccnc1)NCCCCC1CCN(C(=O)c2ccccc2)CC1 + CC(C)C[C@H](NC(=O)[C@H](Cc1ccccc1)NC(=O)c1cnccn1)B(O)O [Bortezomib] (first compound 0.01 µM, partner dose 0.001 µM) | 86.4
10 | CC1(C)CCC(c2ccc(Cl)cc2)=C(CN2CCN(c3ccc(C(=O)NS(=O)(=O)c4ccc(N[C@H](CCN5CCOCC5)CSc5ccccc5)c(S(=O)(=O)C(F)(F)F)c4)cc3)CC2)C1 + O=C(O)c1ccc2c(c1)nc(Nc1cccc(Cl)c1)c1ccncc12 [CX4945] (first compound 0.4 µM, partner dose 0.4 µM) | 85.3
11 | O=C(/C=C/c1cccnc1)NCCCCC1CCN(C(=O)c2ccccc2)CC1 + Cn1c(Nc2ccc(C(F)(F)F)cc2)nc2cc(Oc3ccnc(-c4ncc(C(F)(F)F)[nH]4)c3)ccc21 [CHIR265] (first compound 0.01 µM, partner dose 0.08 µM) | 80.4
12 | CC1(C)CCC(c2ccc(Cl)cc2)=C(CN2CCN(c3ccc(C(=O)NS(=O)(=O)c4ccc(N[C@H](CCN5CCOCC5)CSc5ccccc5)c(S(=O)(=O)C(F)(F)F)c4)cc3)CC2)C1 + CO[C@@H]1[C@H](N(C)C(=O)c2ccccc2)C[C@H]2O[C@]1(C)n1c3ccccc3c3c4c(c5c6ccccc6n2c5c31)C(=O)NC4 [Midostaurin] (first compound 0.4 µM, partner dose 0.08 µM) | 81.5
13 | O=C(/C=C/c1cccnc1)NCCCCC1CCN(C(=O)c2ccccc2)CC1 + C=C(c1ccc(C(=O)O)cc1)c1cc2c(cc1C)C(C)(C)CCC2(C)C [Bexarotene] (first compound 0.01 µM, partner dose 2 µM) | 94.6
